Measured values taken from the RNAGym collection of RNA variant scans (doi:10.1093/nar/gkz1192).
Read counts are not given, so values of variants with three or more changes are uncertain.

B1: CPEB3 Ribozyme (parent)
chain: UAACAGGGGGCCACAGCAGAAGCGUUCACGUCGCAGCCCCUGUCAGAUUCUGGUGAAUCUGCGAAUUCUGCUGUAUAUCUC

Variants of: B1
Assay: self-cleavage, relative activity (ratio to wild type); higher = more cleavage; in vitro, sequencing
How it was run: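 CPEB3 self-cleaving ribozyme mutant libraries were made by rounds of error-prone PCR, barcoded, and transcribed in vitro with T7 RNA polymerase for 5 hours at 37°C. Cleavage occurred during transcription and a 15 min DNase I step before EDTA stop. RNAs were reverse transcribed with template switching and Illumina-sequenced, with DNA sequencing mapping barcodes to variants. Relative activity is the variant's cleaved/total read fraction divided by wild type's (minimum 5 reads), averaged across three batches.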

Variant | self-cleavage
UAACAGGGGACCACAGCAGUAGCGUUCACGUCGCAGCCCCUGUCAGAUUCUGGUGAAUCUGCGAAUCCUGCUGUAUAUCUC [G10A A20U U67C] | 0.26
UAACAGGGGACCACAGCAGAGGCGUCCACGUCGCGGCCCCUGUCAGAUUCUGGUGAAUCUGCGAAUACUGCUGUAUAUCUC [G10A A21G U26C A35G U67A] | 0.24
UAACAGGGGACCACAGCAGUAGCGUUCACGUCGCAGCCCCUGCCAGAUUCUGGUGAAUCUGCGAAUUCUGCUGUAUAUCUC [G10A A20U U43C] | 0.04
UAACAGGGGACCACAGCAGGAGCGUUCACGUCGCAGCACCUGCCAGACUCUGGUGAAUCUGCGAAUUCUGCUGUAUAUCUC [G10A A20G C38A U43C U48C] | 0.37
UAACAGGGGACCACAGCUGAAGCGUUCUGGUCGCAGCCCCUGUCAGAUUCUGGGGGAUCUGCGAAUUCUGCUGUAUAUUUC [G10A A18U A28U C29G U54G A56G C79U] | 0.04
UAACAGGGGACCACAGCAGGAGCGUUCACGUCGCAGCCCCUGUCAGAUCCUGGUGAAUCUGCGAAUUCUGCUGUAUAUCUC [G10A A20G U49C] | 0.08
UAACAGGGGACCACAGCAGGAGCGUUCACGUCGCAGCCCCCGUCAGAUCCUGGUGAAUCUGCGAAUUCUGCCGUAUAUCUC [G10A A20G U41C U49C U72C] | 0.1
UAACAGGGGACCACAGCAGGAGCGUCCACGUCGCAGCCCCUGUCAGAUUCUGGUGAAUCUGCGAAUCCUGCUGUAUAUCUC [G10A A20G U26C U67C] | 0.05
UAACAGGGGACCACAGCUGAAGCGUUCACGUCGCAGCCCCUGUCAGAUUCUCGUGAAUCUGCGAAUUCUGCUGUACAUCUC [G10A A18U G52C U76C] | 0.05
UAACAGGGGACCACAGCAGGAGCGUACACGUCGCAGCCCCUGUCAGACUCUGGUGAAUCUGCGGAUUCCGCUGUAUAUCUC [G10A A20G U26A U48C A64G U69C] | 0.07
UAACAGGGGACCACAGCUGAAGCGUUCACGUAGCAGCCUCUGUCAGAUUCUGGUGGAUCUGCGAAUUCUGCUGUAUAUCCC [G10A A18U C32A C39U A56G U80C] | 0.06
UAACAGGGGACCACAGCAGGAGCGUUCACGUCGCAGCCCCUGUCAGAUUCUGGAGAAUCUGCGAAUUCUGCUGUAUAUCUC [G10A A20G U54A] | 0.09
UAACAGGGGACCACAGCAGGAGCGUUCACGUCGCAGCCCCUGUCUGAUUCUGGUGAAUCAGCGAAUUCAGCUGUAUAUCUC [G10A A20G A45U U60A U69A] | 0.06
UAACAGGGGACCACAGCAGGGGCGUUCACGUCGCAGCCCCUGUCAGAUUCUGGUGAAUCUGCGAAUUCUGCUGUAUAUCUC [G10A A20G A21G] | 0.33
UAACAGGGGACCACAGCUGAAGCGUUCACGUCGCAGCCACUGUCAGAUUCUGGUGAAUCUGCGAAUUCUGCUGCCUAUCUC [G10A A18U C39A U74C A75C] | 0.15
UAACAGGGGACCACAGCAGGAGCGUUCACGUCGCAGCCCCUGUCAGAUUCUGGUGAAUCUACGAAUUCUGCCGUAUAUCUC [G10A A20G G61A U72C] | 0.04
UAACAGGGGACCACAGCAGAGGCGUUCACGUCGCAGCCCCUGUCAGAUUCUGGUGAAUCUGCGGAUUCAGCUGUAUAUCUC [G10A A21G A64G U69A] | 0.07

Variant | self-cleavage
UAACAGGGGACCACAGCAGAGACGUCCACGUCGCAGCCCCUGUCAGAUUCUGGUGAAUCUGCGAAUUCUGCUGUAUAUCUC [G10A A21G G22A U26C] | 0.1
UAACAGGGGACCACAGCAGGAGCGUUCACGUCGCAGCCCCUGUCAGAUUCUGGUGAAUCUGCGAGCUCUGCUGUAUAUCUC [G10A A20G A65G U66C] | 0.05
UAACAGGGGACCACAGCAGAGGCGUUCACGUCGCGGCCCCUGUCGGAUUCUGGUGAAUCUGCGAAUUCUGCUGUAUAUCUC [G10A A21G A35G A45G] | 0.31
UAACAGGGGACCACAGCAGGAGCGUUCACGUCGCAGCCCCUGUCAGAAUCUGGUGAAUCUGCGAAUUCUGCUGUAUAUCUC [G10A A20G U48A] | 0.25
UAACAGGGGACCACAGCUGAAGCGUUCACGUCGCAGCCCCAGUCAGAUUCUGGUGAAUCUGCGAACUCUGCUGUAUACCUC [G10A A18U U41A U66C U78C] | 0.04
UAACAGGGGACCACAGCAGUAGCGUUCGCGUCGCAGCCCCUGUCAGAUUCUGGUGAAUCUGCGAAUUCUGCUGUAUAUCUC [G10A A20U A28G] | 0.05
UAACAGGGGACCACAGCAGGAGCAUUCACGUCGCAGCCCCUGUCAGAUUCUGGUGAAUCUGCGAAUUCUGCAGAAUGUCUC [G10A A20G G24A U72A U74A A77G] | 0.04
UAACAGGGGACCACAGCAGACGCGUUCACGUCGCAGCCCCUGUCAGAUUCUGGUGAAUCUGCGAAUUCCGCUGUAUAACUC [G10A A21C U69C U78A] | 0.05
UAACAGGGGACCACAGCAGGAGCGUUCACGUCGCAGCCCCUGUCAGGUUCUGGUGAAUCUGCGAAUUCUGCUGUAUAUCUC [G10A A20G A47G] | 0.13
UAACAGGGGACCACAGCAGGAGCGUUCACGUCGCAGCCCCUGUCAGCUUCUGGUGAAUCUGCGAAUUCUGCUGUAUAUCUC [G10A A20G A47C] | 0.24
UAACAGGGGACCACAGCAGUAGCGUUCACGUCGCAGCCCGAGUCAGAUUCUGGUGAAUCUGCGAAAUCCGCUGUAUAUCUC [G10A A20U C40G U41A U66A U69C] | 0.07
UAACAGGGGACCACAGCUGAAGCGUUCACGUCGCAGCCCCAGUCAGAUUCAGGCGAAUCUGCGAAUUCUGCUGUAUAUCUC [G10A A18U U41A U51A U54C] | 0.05
UAACAGGGGACCACAGCAGGAGCGUUCACGUCGCAGCCCCUGUCAGAUUCUGGUGAAUCUGCGAAUCCUGCUGUAUAUCUC [G10A A20G U67C] | 0.1
UAACAGGGGACCACAGCAGUAGCGUUCACGUCGCAGCCCCUGUCAGAUUGUGGCGAAUCUGCGAAUUCUGCUGCAUAUCUC [G10A A20U C50G U54C U74C] | 0.06
UAACAGGGGACCACAGCAGUAGCGUUCUCGUCGCAGCCCCUGUCUGAUUCUGGUGAAUCUGCGAAUUCUGCUGUAUUUCUC [G10A A20U A28U A45U A77U] | 0.03
UAACAGGGGACCACAGCAGGAGCGUUCACGGCGCAGCCCCUGUCGGAUUCUGGUGAAUCGGCGAAUUCUGCUGUAUAUCUC [G10A A20G U31G A45G U60G] | 0.04
UAACAGGGGACCACAGCUGAAGCGUUCACGUCGCAGCCCCUGUCAGACUCUGGUGAAUCUGCGAAUUCUCCUGUAUAUCUC [G10A A18U U48C G70C] | 0.04
